Experimental data reported in publication PMC5712524, “Mechanism of early light signaling by the carboxy-terminal output module of Arabidopsis phytochrome B” (Nature Communications, 2017).
Results are given in words; binding and its absence hold for the method and conditions named. For some assays here: Binding seen in cells or lysates may run through a third protein. Some binding calls cover weakened binding; strength is not graded here. For some assays here: Tags and fused reporters may be left off the sequences shown. Blank lines part the entries; values can stand above or below the molecule they belong to.

Key:
[1] = target: HKRD-CA2 (994-1172 a.a.) (Arabidopsis) (UniProt P14713); assay: two-hybrid; GAL4 system, bait pGBKT7 in Y2HGold mated with prey pGADT7AD in Y187; HIS3 reporter, growth on SD/-Trp/-Leu/-His without AbA (less stringent), 30 °C
[2] = target: HKRD-CA3 (1041-1172 a.a.) (Arabidopsis) (UniProt P14713); assay: as above
[3] = target: HKRD-D (863-1060 a.a.) (Arabidopsis) (UniProt P14713); assay: two-hybrid; GAL4 system, bait pGBKT7 in Y2HGold mated with prey pGADT7AD in Y187; growth on SD/-Trp/-Leu with 125 ng/ml Aureobasidin A (high stringency), 30 °C
[4] = target: PHYB18 C-terminal module (625-1172 a.a., D1040V), N-terminal HA- or Myc-tagged (Arabidopsis) (UniProt P14713); assay: co-IP; in vitro co-immunoprecipitation: HA-tagged bait and Myc-tagged prey co-expressed in TNT T7 reticulocyte lysate, anti-HA Affinity Matrix, E buffer (50 mM Tris-HCl pH 7.5, 100 mM NaCl, 1 mM EDTA, 1 mM EGTA, 1% DMSO, 2 mM DTT, 0.1% Nonidet P-40), 4 °C 2 h; anti-Myc immunoblot
[5] = target: T1, HA-tagged PIF3 (HA-PIF3) (Arabidopsis) (UniProt O80536); assay: as above
T1 sequence: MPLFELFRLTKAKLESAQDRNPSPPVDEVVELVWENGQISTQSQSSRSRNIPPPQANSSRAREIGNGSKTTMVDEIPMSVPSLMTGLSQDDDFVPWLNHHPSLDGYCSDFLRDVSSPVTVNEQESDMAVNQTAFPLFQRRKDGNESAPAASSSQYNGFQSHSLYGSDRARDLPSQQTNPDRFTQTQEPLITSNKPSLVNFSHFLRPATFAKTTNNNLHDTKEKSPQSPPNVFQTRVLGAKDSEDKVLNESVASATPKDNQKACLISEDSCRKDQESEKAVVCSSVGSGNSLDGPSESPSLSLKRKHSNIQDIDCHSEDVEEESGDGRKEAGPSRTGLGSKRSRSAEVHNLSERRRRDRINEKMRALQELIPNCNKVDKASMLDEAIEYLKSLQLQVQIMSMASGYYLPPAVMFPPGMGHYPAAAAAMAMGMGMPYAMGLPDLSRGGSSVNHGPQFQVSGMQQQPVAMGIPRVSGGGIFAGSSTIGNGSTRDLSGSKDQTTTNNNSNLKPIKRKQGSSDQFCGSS

[6] = target: PHYB C-terminal module (625-1172 a.a.), N-terminal HA- or Myc-tagged (Arabidopsis) (UniProt P14713); assay: as above
[7] = target: PHYB HKRD domain (863-1172 a.a.) (Arabidopsis) (UniProt P14713); assay: two-hybrid; GAL4 system, bait pGBKT7 in Y2HGold mated with prey pGADT7AD in Y187; growth on SD/-Trp/-Leu with 125 ng/ml Aureobasidin A (high stringency), 30 °C
[8] = target: PHYB HKRD domain (863-1172 a.a.) with the D1040V mutation (Arabidopsis) (UniProt P14713); assay: as above
GST-PIF3 [9] = target: T2, GST-PIF3 (Arabidopsis, UniProt O80536 1-524); assay: pull-down; GST pull-down: immobilized GST-PIF3 pulls down HA-tagged PHYB in the Pfr form; anti-HA immunoblot; procedure as ref. 33; only the target purified
T2 construct: the construct is not described here
T2 sequence (looked up): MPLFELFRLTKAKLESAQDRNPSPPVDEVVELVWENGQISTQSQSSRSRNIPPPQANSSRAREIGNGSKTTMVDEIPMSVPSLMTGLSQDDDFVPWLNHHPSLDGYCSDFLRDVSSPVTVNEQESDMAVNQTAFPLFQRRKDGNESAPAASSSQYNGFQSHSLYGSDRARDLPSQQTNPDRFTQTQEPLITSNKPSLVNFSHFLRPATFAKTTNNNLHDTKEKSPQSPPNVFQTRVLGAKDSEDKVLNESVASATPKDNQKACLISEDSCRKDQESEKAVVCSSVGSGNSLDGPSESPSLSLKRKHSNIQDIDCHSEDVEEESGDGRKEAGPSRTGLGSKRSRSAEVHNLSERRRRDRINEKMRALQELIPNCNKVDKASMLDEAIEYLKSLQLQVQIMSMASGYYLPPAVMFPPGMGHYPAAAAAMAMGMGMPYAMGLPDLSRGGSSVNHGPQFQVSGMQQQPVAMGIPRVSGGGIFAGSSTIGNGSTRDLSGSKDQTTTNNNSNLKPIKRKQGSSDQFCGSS

GST-PIF3 [10] = target: T2, GST-PIF3; assay: pull-down; GST pull-down: immobilized GST-PIF3 pulls down HA-tagged PHYB in the Pr form; anti-HA immunoblot; procedure as ref. 33; only the target purified
GST-PIF3 [11] = target: T2, GST-PIF3; assay: pull-down; GST pull-down: immobilized GST-PIF3 pulls down HA-tagged PHYB as apoprotein; anti-HA immunoblot; procedure as ref. 33; only the target purified
[12] = target: full-length PHYB, N-terminal HA- or Myc-tagged (Arabidopsis) (UniProt P14713); assay: co-IP; in vitro co-immunoprecipitation: HA-tagged bait and Myc-tagged prey co-expressed in TNT T7 reticulocyte lysate, anti-HA Affinity Matrix, E buffer (50 mM Tris-HCl pH 7.5, 100 mM NaCl, 1 mM EDTA, 1 mM EGTA, 1% DMSO, 2 mM DTT, 0.1% Nonidet P-40), 4 °C 2 h; anti-Myc immunoblot
[13] = target: HA-tagged C-terminal PHYB (BC-HA), 625-1172 a.a. (Arabidopsis) (UniProt P14713); assay: as above

binding [1]: binds weakly
Molecule: HKRD-CA2 (994-1172 a.a.) (from UniProt P14713 994-1172) (domain or fragment)

binding [2]: no binding
Molecule: HKRD-CA3 (1041-1172 a.a.) (from UniProt P14713 1041-1172) (domain or fragment)

binding [3]: no binding
Molecule: HKRD-D (863-1060 a.a.) (from UniProt P14713 863-1060) (domain or fragment)

binding [4]: no binding
Molecule: PHYB18 C-terminal module (625-1172 a.a., D1040V), N-terminal HA- or Myc-tagged (from UniProt P14713 625-1172) (domain or fragment)

binding [5]: binds
binding [6]: binds
Molecule: PHYB C-terminal module (625-1172 a.a.), N-terminal HA- or Myc-tagged (from UniProt P14713 625-1172) (domain or fragment)

binding [7]: binds
binding [8]: no binding
Molecule: PHYB HKRD domain (863-1172 a.a.) (from UniProt P14713 863-1172) (domain or fragment)

binding [7]: no binding
Molecule: PHYB HKRD domain (863-1172 a.a.) with the D1040V mutation (from UniProt P14713 863-1172) (domain or fragment)

binding (GST-PIF3 [9]): binds
binding (GST-PIF3 [10]): binds
Molecule: PHYB-HA, Pr or Pfr form (from UniProt P14713 1-1172)

binding (GST-PIF3 [11]): binds
Molecule: PHYB-HA, apoprotein (from UniProt P14713 1-1172)

binding [12]: binds
Molecule: full-length PHYB, N-terminal HA- or Myc-tagged (from UniProt P14713 1-1172)

binding [13]: binds
B1: Myc-tagged C-terminal PHYE (EC-Myc), 549-1112 a.a. (domain or fragment, UniProt P42498 549-1112)
chain: SRSLPWEISEIDAIHSLRLIMRESFTSSRPVLSGNGVARDANELTSFVCEMVRVIETATAPIFGVDSSGCINGWNKKTAEMTGLLASEAMGKSLADEIVQEESRAALESLLCKALQGEEEKSVMLKLRKFGQNNHPDYSSDVCVLVNSCTSRDYTENIIGVCFVGQDITSEKAITDRFIRLQGDYKTIVQSLNPLIPPIFASDENACCSEWNAAMEKLTGWSKHEVIGKMLPGEVFGVFCKVKCQDSLTKFLISLYQGIAGDNVPESSLVEFFNKEGKYIEASLTANKSTNIEGKVIRCFFFLQIINKESGLSCPELKESAQSLNELTYVRQEIKNPLNGIRFAHKLLESSEISASQRQFLETSDACEKQITTIIESTDLKSIEEGKLQLETEEFRLENILDTIISQVMIILRERNSQLRVEVAEEIKTLPLNGDRVKLQLILADLLRNIVNHAPFPNSWVGISISPGQELSRDNGRYIHLQFRMIHPGKGLPSEMLSDMFETRDGWVTPDGLGLKLSRKLLEQMNGRVSYVREDERCFFQVDLQVKTMLGVESRGTEGSSSIK

binding [13]: binds
B2: Myc-tagged C-terminal PHYD (DC-Myc), 598-1164 a.a. (domain or fragment, UniProt P42497 598-1164)
chain: SRCQPWETAEMDAIHSLQLILRDSFKESEAMDSKAAAAGAVQPHGDDMVQQGMQEIGAVAREMVRLIETATVPIFAVDIDGCINGWNAKIAELTGLSVEDAMGKSLVRELIYKEYKETVDRLLSCALKGDEGKNVEVKLKTFGSELQGKAMFVVVNACSSKDYLNNIVGVCFVGQDVTGHKIVMDKFINIQGDYKAIIHSPNPLIPPIFAADENTCCLEWNTAMEKLTGWPRSEVIGKLLVREVFGSYCRLKGPDALTKFMIVLHNAIGGQDTDKFPFPFFDRKGEFIQALLTLNKRVSIDGKIIGAFCFLQIPSPELQQALEVQRRQESEYFSRRKELAYIFQVIKNPLSGLRFTNSLLEDMDLNEDQKQLLETSVSCEKQISKIVGDMDVKSIDDGSFLLERTEFFIGNVTNAVVSQVMLVVRERNLQLIRNIPTEVKSMAVYGDQIRLQQVLAEFLLSIVRYAPMEGSVELHLCPTLNQMADGFSAVRLEFRMACAGEGVPPEKVQDMFHSSRWTSPEGLGLSVCRKILKLMNGGVQYIREFERSYFLIVIELPVPLMMMMPSS

binding [13]: no binding
B3: Myc-tagged C-terminal PHYA (AC-Myc), 563-1122 a.a. (domain or fragment, UniProt P14712 563-1122)
chain: TRSLPWKDYEMDAIHSLQLILRNAFKDSETTDVNTKVIYSKLNDLKIDGIQELEAVTSEMVRLIETATVPILAVDSDGLVNGWNTKIAELTGLSVDEAIGKHFLTLVEDSSVEIVKRMLENALEGTEEQNVQFEIKTHLSRADAGPISLVVNACASRDLHENVVGVCFVAHDLTGQKTVMDKFTRIEGDYKAIIQNPNPLIPPIFGTDEFGWCTEWNPAMSKLTGLKREEVIDKMLLGEVFGTQKSCCRLKNQEAFVNLGIVLNNAVTSQDPEKVSFAFFTRGGKYVECLLCVSKKLDREGVVTGVFCFLQLASHELQQALHVQRLAERTAVKRLKALAYIKRQIRNPLSGIMFTRKMIEGTELGPEQRRILQTSALCQKQLSKILDDSDLESIIEGCLDLEMKEFTLNEVLTASTSQVMMKSNGKSVRITNETGEEVMSDTLYGDSIRLQQVLADFMLMAVNFTPSGGQLTVSASLRKDQLGRSVHLANLEIRLTHTGAGIPEFLLNQMFGTEEDVSEEGLSLMVSRKLVKLMNGDVQYLRQAGKSSFIITAELAAANK

binding [13]: no binding
B4: Myc-tagged C-terminal PHYC (CC-Myc), 553-1111 a.a. (domain or fragment, UniProt P14714 553-1111)
chain: WKSVPWDDMEMDAINSLQLIIKGSLQEEHSKTVVDVPLVDNRVQKVDELCVIVNEMVRLIDTAAVPIFAVDASGVINGWNSKAAEVTGLAVEQAIGKPVSDLVEDDSVETVKNMLALALEGSEERGAEIRIRAFGPKRKSSPVELVVNTCCSRDMTNNVLGVCFIGQDVTGQKTLTENYSRVKGDYARIMWSPSTLIPPIFITNENGVCSEWNNAMQKLSGIKREEVVNKILLGEVFTTDDYGCCLKDHDTLTKLRIGFNAVISGQKNIEKLLFGFYHRDGSFIEALLSANKRTDIEGKVTGVLCFLQVPSPELQYALQVQQISEHAIACALNKLAYLRHEVKDPEKAISFLQDLLHSSGLSEDQKRLLRTSVLCREQLAKVISDSDIEGIEEGYVELDCSEFGLQESLEAVVKQVMELSIERKVQISCDYPQEVSSMRLYGDNLRLQQILSETLLSSIRFTPALRGLCVSFKVIARIEAIGKRMKRVELEFRIIHPAPGLPEDLVREMFQPLRKGTSREGLGLHITQKLVKLMERGTLRYLRESEMSAFVILTEFPLI
